In patent US12269793B2, “Affinity illudofulvene conjugates” (AF Chemicals, LLC, priority 2019, dated 2025):

System: NCI 60 cell line panel
Experiment: NCI DTP 60 cell line screen assay
Conditions: result in words

## CC(=O)O[C@@H]1C2=C(C)C3(CC3)[C@@](C)(O)C(=O)C2=C[C@@]1(C)CO [Analog 371]
  potency at lysing the NCI 60 tumor cell line: most potent
